Laboratory results from article PMC4336329 (PLoS ONE, 2015).
The campaign covered roughly 310,000 compounds. About 2,200 (0.71%) showed an effect of 50% or more. Effects have a minus sign here. Some of the results follow.

The molecules below were run against human ether-à-go-go-related gene (hERG) potassium channel (human, UniProt Q12809) (assay: primary screen, population patch clamp on CHO cells stably expressing hERG).
Sequence of human ether-à-go-go-related gene (hERG) potassium channel (Q12809 whole entry, looked up): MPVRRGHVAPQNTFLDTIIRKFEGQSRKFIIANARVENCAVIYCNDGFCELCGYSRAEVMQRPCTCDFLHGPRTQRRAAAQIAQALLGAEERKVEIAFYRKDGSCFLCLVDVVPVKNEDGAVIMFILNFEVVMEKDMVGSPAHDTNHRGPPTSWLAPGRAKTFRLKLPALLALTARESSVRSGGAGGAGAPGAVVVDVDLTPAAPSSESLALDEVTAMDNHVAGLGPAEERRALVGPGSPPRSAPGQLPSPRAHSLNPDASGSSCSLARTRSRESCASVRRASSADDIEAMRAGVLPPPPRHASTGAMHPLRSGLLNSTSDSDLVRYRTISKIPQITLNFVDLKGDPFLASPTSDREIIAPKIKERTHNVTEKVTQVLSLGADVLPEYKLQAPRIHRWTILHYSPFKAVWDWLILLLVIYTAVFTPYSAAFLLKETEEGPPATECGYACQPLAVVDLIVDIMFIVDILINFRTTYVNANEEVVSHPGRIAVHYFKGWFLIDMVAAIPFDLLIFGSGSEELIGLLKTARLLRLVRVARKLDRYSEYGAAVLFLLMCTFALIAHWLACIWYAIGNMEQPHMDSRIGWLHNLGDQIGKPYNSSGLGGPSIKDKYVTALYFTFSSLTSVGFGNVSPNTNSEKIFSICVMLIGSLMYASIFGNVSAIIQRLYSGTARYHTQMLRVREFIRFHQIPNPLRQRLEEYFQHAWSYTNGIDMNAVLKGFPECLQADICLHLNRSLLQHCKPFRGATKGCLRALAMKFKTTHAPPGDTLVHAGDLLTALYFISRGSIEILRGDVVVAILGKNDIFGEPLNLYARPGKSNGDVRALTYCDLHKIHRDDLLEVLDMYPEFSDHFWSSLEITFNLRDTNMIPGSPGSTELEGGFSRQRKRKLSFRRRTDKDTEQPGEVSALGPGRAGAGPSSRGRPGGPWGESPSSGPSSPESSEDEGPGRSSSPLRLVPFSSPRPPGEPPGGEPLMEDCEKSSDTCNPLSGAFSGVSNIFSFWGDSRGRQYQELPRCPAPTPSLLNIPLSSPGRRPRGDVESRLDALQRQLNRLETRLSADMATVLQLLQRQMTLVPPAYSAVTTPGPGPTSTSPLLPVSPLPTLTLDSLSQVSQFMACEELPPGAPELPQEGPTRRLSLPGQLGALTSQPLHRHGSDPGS

| SMILES | hERG current change (%, negative = inhibition) at 1uM [%] |
| --- | --- |
| Cc1ccccc1OCC(O)CN1CCN(CC(O)COc2ccccc2C)CC1 (stereo not drawn) | -50.4 |
| O=C(Nc1ccc(Cl)c(Cl)c1)Nc1ccccc1NS(=O)(=O)c1cccs1 | 16 |
| C1CN(CC23CC4CC(CC(C4)C2)C3)CCO1.Cl | 19.9 |
| Cc1cccc(/C(N)=N/OC(=O)c2ccncc2)c1 | 10.9 |
| COc1cc(C(=O)N(Cc2cc3cc(C)ccc3[nH]c2=O)CC2CCCO2)cc(OC)c1OC (stereo not drawn) | 13.5 |
| Nn1c(SCc2csc(-c3ccccc3)n2)nnc1-c1cccs1 | 3.15 |
| COc1ccc(CCN=C(N)NS(=O)(=O)c2cccs2)cc1 | 10.8 |
| Cc1cc(C)cc(NC(=O)CSc2ccc(-c3cccs3)nn2)c1 | 2.75 |
| CCOC(=O)CSc1nnc(-c2ccccc2)c(=O)[nH]1 | -14.8 |
| CC1Cc2ccccc2N1C(=O)c1ccc2c(c1)OCO2 (stereo not drawn) | 15.9 |
| Cn1cc(Br)c(-c2cccc(N3C(=O)CCCC3=O)c2)n1 | 12.1 |
| O=C(CSc1n[nH]c(-c2cccs2)n1)N1CCN(S(=O)(=O)c2ccc3ccccc3c2)CC1 | -3.55 |
| COc1ccc(C2N(C(=O)CN3CCOCC3)CCN2S(=O)(=O)c2ccccc2)cc1 (stereo not drawn) | -1.26 |
| CC(=O)Nc1cccc(OCC(=O)NS(=O)(=O)c2ccc(C)cc2)c1 | 5.58 |
| Cc1sc2nc(CN3CCCC3)nc(N3CCN(C(=O)c4ccco4)CC3)c2c1C | -34.4 |
| CN1CCN(C(=O)c2sc(=S)n(-c3ccccc3)c2N)CC1 | -3.96 |
| Cc1sc(NC(=O)c2c(F)cccc2F)nc1-c1ccccc1 | 11.3 |
| N#C/C(=C(/O)COC(=O)Cc1c[nH]c2ccccc12)c1nc2ccccc2[nH]1 | 12.8 |
| CC(CC(=O)Nc1ccc(S(=O)(=O)Nc2ncccn2)cc1)c1ccccc1 (stereo not drawn) | 9.62 |

| SMILES | hERG current change (%, negative = inhibition) at 1uM [%] |
| --- | --- |
| COC(=O)c1ccccc1NC(=O)NN1CCN(C)CC1 | -0.228 |
| Cc1ccccc1OCC(=O)OCC(=O)NCC1CCCO1 (stereo not drawn) | 15.8 |
| Nc1cccc(-c2nnc3n2CCCCC3)c1 | 10.3 |
| Cc1ccc(C(=O)N2CCC3(CC2)Oc2ccc(F)cc2C(=O)C32CC(c3cccnc3)=NO2)s1 (stereo not drawn) | 20.3 |
| CCN(/C=N/c1sc2c(c1C#N)CCCCC2)CC | 6.54 |
| CN(C)CCN1C(=O)NC(C)(c2ccc([N+](=O)[O-])cc2)C1=O (stereo not drawn) | 0.545 |
| COc1cnc(SCc2ccc(Cl)cc2)nc1Cl | 11.6 |
| CCOC(=O)C1=C(C)N2C(=C(C#N)[C@@H]1c1ccc(C(=O)OC)cc1)SC[C@@]2(O)C(C)(C)C | 10.3 |
| N/C(=N\OC(=O)Cc1ccc(-c2ccccc2)cc1)c1cccnc1 | 0.886 |
| O=C1C(CCCNC(=S)NCc2ccccc2)NC(=S)N1Cc1ccccc1 (stereo not drawn) | 11.2 |
| CC(C(=O)NC(C)(C)C)N1C(=O)c2cccc3cccc(c23)C1=O (stereo not drawn) | 17.6 |
| Cc1ccc(-c2[nH]c(=S)[nH]c(=O)c2C#N)cc1 | 13 |
| CC1CCN(c2c(NCC3CCC(C(=O)Nc4ccccn4)CC3)c(=O)c2=O)CC1 (stereo not drawn) | 16.4 |
| CN(Cc1cn(-c2ccccc2)nc1-c1ccc2c(c1)OCO2)Cc1nccn1C | 9.39 |
| N#C/C(=N\Nc1cccc(F)c1)C(=O)C1CC1 | 14.9 |
| CCN1CCN(c2ccc(S(=O)(=O)N3CCCCC3)cc2NC(=O)COc2ccc(Cl)cc2)CC1 | 5.42 |
| Cc1cc(C(C)(C)C)cc(S(=O)(=O)NCCO)c1C | 10.5 |
| CC(C)(C)c1ccc(OC(=O)c2ccc3snnc3c2)cc1 | 14.9 |
| CSCC[C@H](NC(=O)[C@@H]1Cc2ccccc2CN1)C(=O)NC1CCCC1 | 4.72 |

| SMILES | hERG current change (%, negative = inhibition) at 1uM [%] |
| --- | --- |
| CCOc1ccc(-c2cc(C(=O)NCCCN3CCOCC3)c3ccccc3n2)cc1 | 8.35 |
| CCOC(=O)C(O)(NC(=O)c1cccnc1)C(F)(F)F (stereo not drawn) | 7.51 |
| COc1ccc(OC)c(N(C(=O)c2ccco2)C(C(=O)NC2CCCC2)c2cc(OC)c(OC)c(OC)c2)c1 (stereo not drawn) | 19.8 |
| O=C1C(=O)N(CCCN2CCOCC2)C(c2ccc(F)cc2)/C1=C(\O)c1ccc2c(c1)OCCO2 (stereo not drawn) | 1.85 |
| CC(C)(C)OC(=O)N1CCC(C(N)=O)CC1 | 5.04 |
| O=C(O)c1cccnc1SCc1cn2cc(Br)ccc2n1 | 7.81 |
| O=C(O)CCc1ccc(-c2ccc(Br)cc2)o1 | 12.6 |
| O=C(O)c1cccc(NC(=S)NC(=O)c2ccc(-c3ccccc3)cc2)c1 | 9.32 |
| O=C(c1ccco1)N1CCN(S(=O)(=O)/C=C/c2ccccc2)CC1 | -7.19 |
| COc1cccc(-c2nc(NC3CCCC3)c3ccccc3n2)c1O | 21.5 |
| C/C(CC(=O)Nc1cccc(C(F)(F)F)c1)=N\NC(=O)c1cnccn1 | 6.96 |
| COc1ccc(NC(=S)NCCc2ccc(S(N)(=O)=O)cc2)c(OC)c1 | 14.3 |
| CC(C(O)c1ccc(O)cc1)N1CCC(Cc2ccccc2)CC1.O=C(O)C(O)C(O)C(=O)O (stereo not drawn) | -33.4 |
| Cc1sc2nc(CN3CCOCC3)nc(NS(=O)(=O)c3ccccc3)c2c1C | 15.1 |
| Cc1cc(C(=O)NNC(=S)Nc2ccccc2)nn1C | 18.1 |
| O=C(CSCc1ccc(F)cc1)Nc1nc2c(s1)CCCC2 | -0.862 |
| O=C(NCc1ccc(F)cc1)Nc1ccccc1 | 20.6 |
| CCC(=O)Nc1ccc2c(c1)C(=O)N(C)C2=O | 12.4 |
| CCCNC(=O)NC(=O)COC(=O)c1ccc(OC)c(S(=O)(=O)N2CCCc3ccccc32)c1 | 9.12 |
